Some of the results follow.
B1: chr15:75657416:75657517:+|3pUTR|ENSG00000173548|msi1|FALSE|unique (ssRNA)
RNA: GGGAGUUCUACAGUCCGACGAUCCAUGGGUGCCCCUGGGAAAUUCCCCACUCCUUAGAAGUGGGGCACAGCAGGGGUGAGAAUAGAGUCAGGAGCCCUCGAGGCCAAGGCCUGGGCUGCCGGUCAGUCAGUGAAGGUCAGGCCCAACAGAGGAUUGAGCAUCA
B2: chr10:17237356:17237519:+|3pUTR|ENSG00000026025|msi1_unk|FALSE|overlapping (ssRNA)
RNA: GGGAGUUCUACAGUCCGACGAUCAGAUAGAUUUGGAAUAGGAAUAAGCUCUAGUUCUUAACAACCGACACUCCUACAAGAUUUAGAAAAAAGUUUACAACAUAAUCUAGUUUACAGAAAAAUCUUGUGCUAGAAUACUUUUUACAACAGAGGAUUGAGCAUCA
B3: chr2:99394746:99394872:+|CDS|ENSG00000158417|unk|total|mutant (ssRNA)
RNA: GGGAGUUCUACAGUCCGACGAUCGAUGUGAGAAUUGAACGAGAUGCACAAGAAAUGGCUGACCGUUCCGGAGUCCGAAUUUUCCGUGCAGAAAUUAUUUAUCAUUUAUUUGAUGCCUUUACAAAAUACCGACAAGACUACAAGCAACAGAGGAUUGAGCAUCA
B4: chr1:152032676:152032810:-|CDS|ENSG00000163191|unk|total|mutant (ssRNA)
RNA: GGGAGUUCUACAGUCCGACGAUCGGACCCUGGUGUCCUUGACCGCAUGAUGAAGAAACUGGACACCAACAGUGAUGGUCAGCCCGAUUUCUCAGAAUUUCUUAAUCUGAUUGGUGGCCCCGCUAUGGCUUGCCAUGACUCCUUCAACAGAGGAUUGAGCAUCA
B5: chr15:38484694:38484795:+|3pUTR|ENSG00000171262|unk|FALSE|unique (ssRNA)
RNA: GGGAGUUCUACAGUCCGACGAUCAUUAGAAAUAGUGUUCCAAAUAACAUACUUGAAUAUCAUCUUUGAAGUAAACACCAUGUUAGACUCCCUGGUGAUACCACUCUUGAAUUGGUUAAUAUGUAAGAACAUUGUUUUUUAUUACAACAGAGGAUUGAGCAUCA
B6: chr6:111661451:111661552:-|3pUTR|ENSG00000010810|msi1|FALSE|bound_elsewhere (ssRNA)
RNA: GGGAGUUCUACAGUCCGACGAUCCUUUGGAAAAUGCAUUGUAUCGAUGUUAUGUAAAAGGCCAAACCUCUGUUCAGUGUAAAUAGUUACUCCAGUGCCAACAAUCCUAGUGCUUUCCUUUUUUAAAAAUGCAAAUCCUAUGUGCAACAGAGGAUUGAGCAUCA
B7: chr2:205797254:205797461:+|3pUTR|ENSG00000118257|msi1|total|mutant (ssRNA)
RNA: GGGAGUUCUACAGUCCGACGAUCUCACCCUCCCAUGAUGCGCAGUGUUCAGAAAGCUGGUAAGUCCCCGGGAUUUCCAGAAGCCGCCUGCAGAAGAAGGUAAGUUUGAAAGCCACUCCAGGGGUCCUGAUGCUGUCAUGCUCACAACAGAGGAUUGAGCAUCA
B8: chr11:10770493:10770605:+|CDS|ENSG00000198730|unk|FALSE|unique (ssRNA)
RNA: GGGAGUUCUACAGUCCGACGAUCACAUGUGGCACCCAGUGAUACAGUUCUUAUGUUUAAUGUGGCCUUGGUCCUGCAAAGAUUAGCUACCUCUGUCCUGAAAGAUGAAAAAAGUAAUCUGAAGGAAGUACUUAAUGCUGUGAACAACAGAGGAUUGAGCAUCA
B9: chr20:50584425:50584526:+|3pUTR|ENSG00000196396|msi1|FALSE|unique (ssRNA)
RNA: GGGAGUUCUACAGUCCGACGAUCACCUCCUAUCCUUGGAGAGCAGCUGGCUCUCCACCUUGUUACACAUUAUGUUAGAGAGGUAGCGAGCUGCUCUGCUAUAUGCCUUAAGCCAAUAUUUACUCAUCAGGUCAUUAUUUUUUACAACAGAGGAUUGAGCAUCA
B10: chr7:20413385:20413486:+|3pUTR|ENSG00000105855|msi1|total|mutant (ssRNA)
RNA: GGGAGUUCUACAGUCCGACGAUCACUGAAGAUAUCUUUAUGCAAGACAAGAGUCAGCCAUCAGACACUGAAAUAUAUUAUGACCGAUUAUGAAGAAUUUUCUCUGCCGAAUUAUAUUCUUCCUGGAACCUGGCCGAGCCGAUUCAACAGAGGAUUGAGCAUCA
B11: chr13:32775312:32775413:+|3pUTR|ENSG00000083642|unk|FALSE|unique (ssRNA)
RNA: GGGAGUUCUACAGUCCGACGAUCGAAACUUGUAAAUAUCUUUUUUCUUUUUUUUAAUGUUUCUGAUUUCUGAAGUGCUUGUAUAGCUUUUAUCUGCGGCUUUAAACUGACAGUACCCGACUGUUUAUUGGAUCUAUUGAUUUGCAACAGAGGAUUGAGCAUCA
B12: chr19:54333184:54333571:-|three_prime_utr|ENSG00000239961|control|control|control (ssRNA)
RNA: GGGAGUUCUACAGUCCGACGAUCGCUGAGAAUAUCAAGGGGAAGAAGCAUGGGUCAGGUGCAGGAAGAUGUCUGGGUGUCUGUAGAAGAUGCUUCCUCCAUUAAACUGUGGUGCUUUCCUCCUCAUUGUCGACUCUCCUUGACCAACAGAGGAUUGAGCAUCA
B13: ENSG00000198589:be:win_7751|CDS|ENSG00000198589|bound_else_gene|NA|bound_elsewhere_windowed (ssRNA)
RNA: GGGAGUUCUACAGUCCGACGAUCAAGUGCAUUCCCAGUGCUUUGUCAUCACUUCAGACAACCGCUAUAUUCUCGUCUGUGGCUUCUGGGAUAAAAGUUUCAGAGUCUAUUCUACAGACACAGGAAGAUUGAUCCAAGUGGUGUCAACAGAGGAUUGAGCAUCA
B14: chr1:27612063:27612913:-|three_prime_utr|ENSG00000000938|control|control|control (ssRNA)
RNA: GGGAGUUCUACAGUCCGACGAUCGGUGGCCACCAGUCCUUGCCAAUCCCCAGAGCUGUUCUUCCAAAGCCCCCAGGCUGGCUUAGAACCCCAUAGAGUCCUAGCAUCACCGAGGACGUGGCUGCUCUGACACCACCUAGGGCACAACAGAGGAUUGAGCAUCA
B15: chr17:48061271:48061372:+|3pUTR|ENSG00000082641|msi1|total|mutant (ssRNA)
RNA: GGGAGUUCUACAGUCCGACGAUCAGUGAAAUGGGGGUGGGGGGAAGCACUGAUUCCCAGUCCGGGGGUGCCUAACUGAGCAGCCGGGACCGAAGGUGUGAACCUGGGAGUGCUUUUAUAAAUUAUUUUCCUUGCCGAUUUUAUCAACAGAGGAUUGAGCAUCA
B16: ENSG00000061794:stop:overlap|stop_codon|ENSG00000061794|stop_codon|NA|stop_codon (ssRNA)
RNA: GGGAGUUCUACAGUCCGACGAUCUCUCCACUGCCGUCUACUCGGCCACUCCGGUCCCGACACCUAGCCUGCGCACUACCUCCUAGGACAGAGAAAAUGGCUGUUGACCAGGACUGGCCUAGUGUUUACCCAGUUGCAGCACCACAACAGAGGAUUGAGCAUCA
B17: chr4:75800632:75800752:+|CDS|ENSG00000138768|unk|FALSE|unique (ssRNA)
RNA: GGGAGUUCUACAGUCCGACGAUCAAACAACUGAUUGAGAAGAGGAUUGGCAAAGAGAAUUUCAUAGAGAAACUAGGAUUUAUUAGCAAACAUGAGUUGUAUUCCAGAGCAUCUCAGAAACCCCAGCCAAACUUUCCCAGUCCACAACAGAGGAUUGAGCAUCA
B18: chr15:25371268:25371377:-|CDS|ENSG00000114062|unk|total|mutant (ssRNA)
RNA: GGGAGUUCUACAGUCCGACGAUCCACAAUGUAUACUCUCGAGAUCCUAAUUAUCUGAAUUUGUUCAUUAUCGUAAUGGAGAACCGAAAUCUCCACAGUCCUGAAUAUCUGGAAAUGGCUUUGCCAUUAUUUUGCAAAGCGAUGCAACAGAGGAUUGAGCAUCA
B19: chr2:120222042:120222143:-|CDS|ENSG00000226479|msi1|FALSE|bound_elsewhere (ssRNA)
RNA: GGGAGUUCUACAGUCCGACGAUCGAAAUUUUCCCAUUUUUAAGAGAAUAUGGGAACAUUUCAUAUGAUCUCCAUCACGAAGAUAGUGAAGAUGCUGAAGAAACAUCAGUUCCAGAAGCUCCGAAAAUUGCUCCAAUAUUUGGACAACAGAGGAUUGAGCAUCA
B20: chr20:4853394:4853498:-|3pUTR|ENSG00000089057|unk|FALSE|unique (ssRNA)
RNA: GGGAGUUCUACAGUCCGACGAUCUAUGACCAUGAGCUAAGUUGUUAUUUCUUUCAUUCAUAUCCCUGCUGAAAUAUUGGUACUAGCAACUUAAAGUUGGCAAGUCUCAUCUUCAGUAAUACGGAUGCCAUGGGAGUGGCCAGGCAACAGAGGAUUGAGCAUCA
B21: chr1:71070866:71070979:-|CDS|ENSG00000132485|unk|FALSE|bound_elsewhere (ssRNA)
RNA: GGGAGUUCUACAGUCCGACGAUCGAGGAUGAAGAUGACGCUGAUCUCUCAAAAUAUAAUCUUGAUGCCAGUGAAGAAGAAGAUAGUAAUAAAAAGAAAUCUAAUAGACGAAGUCGCUCAAAGUCUCGAUCUUCACAUUCACGACAACAGAGGAUUGAGCAUCA
B22: chr6:151351738:151351839:+|CDS|ENSG00000131016|msi1|FALSE|unique (ssRNA)
RNA: GGGAGUUCUACAGUCCGACGAUCGGUGGUGGGGCAGACCACCCCAGAAAGCUUUGAAAAAGCUCCUCAAGUCACAGAGAGCAUAGAGUCCAGUGAGCUUGUAACCACUUGUCAAGCCGAAACCUUAGCUGGGGUAAAAUCACACAACAGAGGAUUGAGCAUCA

Biological target: MSI1 full-length (mouse, UniProt Q61474 1-362)
Assay: nsRBNS (natural sequence RNA bind-n-seq); RBNS binding buffer (assumed for nsRBNS): 25 mM Tris pH 7.5, 150 mM KCl, 3 mM MgCl2, 0.01% Triton X-100, 500 ug/ml BSA, 20 U/ml SUPERase-In, 4 C; UNK is unkempt and MSI1 is Musashi-1; names of the RNAs are library labels; protein concentration not given here; high values mean tight binding

Chain of UniProt Q61474 (Q61474 whole entry): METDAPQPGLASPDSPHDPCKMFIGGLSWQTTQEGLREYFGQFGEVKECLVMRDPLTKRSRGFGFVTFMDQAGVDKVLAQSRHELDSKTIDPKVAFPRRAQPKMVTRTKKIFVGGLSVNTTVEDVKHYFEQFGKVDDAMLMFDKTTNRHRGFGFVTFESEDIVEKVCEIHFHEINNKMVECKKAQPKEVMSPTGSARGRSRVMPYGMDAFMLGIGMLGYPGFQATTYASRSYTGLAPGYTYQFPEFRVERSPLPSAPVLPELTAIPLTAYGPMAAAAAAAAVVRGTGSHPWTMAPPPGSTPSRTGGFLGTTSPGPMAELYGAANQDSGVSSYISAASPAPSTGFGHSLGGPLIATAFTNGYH

Binder | binding signal [enrichment R]
B1 | 0.407
B2 | 20.9
B3 | 0.374
B4 | 0.259
B5 | 0.922
B6 | 2.5
B7 | 0.483
B8 | 0.659
B9 | 6.1
B10 | 0.223
B11 | 0.648
B12 | 0.576
B13 | 0.205
B14 | 0.638
B15 | 0.717
B16 | 0.532
B17 | 3.47
B18 | 0.673
B19 | 0.169
B20 | 0.3
B21 | 1.15
B22 | 0.59
